Measured values published in the RNAGym collection of RNA variant scans (doi:10.1073/pnas.2313332121).
Variants at the background level are over-represented here.

B1: TPR 5TU (parent)
chain: GGAUCUUCUCGAUCUAACAAAAAAGACAAAUCUGCCACAAAGCUUGAGAGCAUCUUCGGAUGCAGAGGCGGCAGCCUUCGGUGGCGCGAUAGCGCCAACGUUCUCAACUAUGACACGCAAAACGCGUGCUCCGUUGAAUGGAGUUUAUCAUG

Variants of: B1
Assay: polymerase ribozyme fitness, log enrichment relative to wild type (log ratio); higher = more active; in vitro selection for triplet polymerase activity
How it was run: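 Frozen incubation at −7 °C formed the core of a single, triplicate in vitro selection round applied to PCR-built, transcribed mutant libraries of each subunit of a heterodimeric triplet polymerase ribozyme. Extended constructs were gel-excised, captured with streptavidin beads and amplified by RT-PCR, and input and output libraries were Illumina-sequenced with a filter of ≥10 input reads and ≥1 read per output. Fitness is the logarithm of genotype enrichment relative to wild-type enrichment, with inverse-variance-weighted replicate averaging, and the logarithm is base 2.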

C27U C63U G81A A89G A97U A119G C125U and C27U C76G G143U cannot be ordered by “polymerase ribozyme fitness (log ratio)” value: no more than -4.2 for the first, no more than -4.2 for the second.

C27U C79A C103A and C27U C85A A91U G143A cannot be ordered by “polymerase ribozyme fitness (log ratio)” value: no more than -4.2 for the first, no more than -4.2 for the second.

C27U C93G A97U A121G and C27U C105G G124A U134G cannot be ordered by “polymerase ribozyme fitness (log ratio)” value: no more than -4.2 for the first, no more than -4.2 for the second.

C27U G34U C93U G112C U148G and C27U G42A G67U C69A G117A A150C cannot be ordered by “polymerase ribozyme fitness (log ratio)” value: no more than -4.2 for the first, no more than -4.2 for the second.

C27U G46C A52C C75G C85A C103U and C27U G46C G74A C95U cannot be ordered by “polymerase ribozyme fitness (log ratio)” value: no more than -4.2 for the first, no more than -4.2 for the second.

C27U G50A A64G C96A C131U U145G and C27U G50C G71C G86A C99A U130G C132U cannot be ordered by “polymerase ribozyme fitness (log ratio)” value: no more than -4.2 for the first, no more than -4.2 for the second.

C27U G58A G59C C99U U102G A120C C125U and C27U G58C G83A A91U A107C U127A cannot be ordered by “polymerase ribozyme fitness (log ratio)” value: no more than -4.2 for the first, no more than -4.2 for the second.

C27U G59A A66G C96A A97U U102A A110G G143A and C27U G59A C87A A138U G143C cannot be ordered by “polymerase ribozyme fitness (log ratio)” value: no more than -4.2 for the first, no more than -4.2 for the second.

Going from C27U G65C A66C A73U C93A C108G C129G to C27U G67U C85G C93U C116A G117A, the “polymerase ribozyme fitness (log ratio)” value falls from -3.81 to no more than -4.2.

C27U G68C U82G C85A A89U A91U A122U and C27U G68U C79G G141U cannot be ordered by “polymerase ribozyme fitness (log ratio)” value: no more than -4.2 for the first, no more than -4.2 for the second.

C27U G68U G74U U77C G80C U104C C116G and C27U G70A G92C G141C cannot be ordered by “polymerase ribozyme fitness (log ratio)” value: no more than -4.2 for the first, no more than -4.2 for the second.

Compared with C27U G81U C85U, C27U G83A C125U U130G U135G is lower in “polymerase ribozyme fitness (log ratio)” value: -2.15 for the first, no more than -4.2 for the second.

C27U G92C C116U A119U U135G and C27U U31G C43U C95U cannot be ordered by “polymerase ribozyme fitness (log ratio)” value: no more than -4.2 for the first, no more than -4.2 for the second.

Compared with C27U U33C A73G C85U, C27U U33G G68U C79U C96U U130A is lower in “polymerase ribozyme fitness (log ratio)” value: -0.859 for the first, no more than -4.2 for the second.

Going from C27U U45A A91U G124U U127A to C27U U55A, the “polymerase ribozyme fitness (log ratio)” value rises from no more than -4.2 to -0.901.

C27U U55C A60C G80A C85G and C27U U90G A98G A107C C116A U135C cannot be ordered by “polymerase ribozyme fitness (log ratio)” value: no more than -4.2 for the first, no more than -4.2 for the second.

A28C A29C G46C C75A G86A G140C and A28C A29U A52G G83U U148G cannot be ordered by “polymerase ribozyme fitness (log ratio)” value: no more than -4.2 for the first, no more than -4.2 for the second.

First: A28C A29U C38A G128C
Second: A28C A30U C35G C87A C105U
The “polymerase ribozyme fitness (log ratio)” value of the first is lower: no more than -4.2 for the first, -3.84 for the second.

A28C A30U U102A A138C U146C A150U and A28C A37C G124A A142C cannot be ordered by “polymerase ribozyme fitness (log ratio)” value: no more than -4.2 for the first, no more than -4.2 for the second.

A28C A39C A41U U56A G80A A97U G128U and A28C A39C A91U A120U G143C cannot be ordered by “polymerase ribozyme fitness (log ratio)” value: no more than -4.2 for the first, no more than -4.2 for the second.

A28C A39C C69A C118G and A28C A39G U55G U90G G94A A97C C114A cannot be ordered by “polymerase ribozyme fitness (log ratio)” value: no more than -4.2 for the first, no more than -4.2 for the second.

A28C A39U G48C G70A G84C C93G G140U and A28C A39U G59U G136U cannot be ordered by “polymerase ribozyme fitness (log ratio)” value: no more than -4.2 for the first, no more than -4.2 for the second.

A28C A40C U77C G141C and A28C A40U U53A G84U A115U cannot be ordered by “polymerase ribozyme fitness (log ratio)” value: no more than -4.2 for the first, no more than -4.2 for the second.

A28C A41C A64U G88U C95A C105U and A28C A41G G42A U44A C76A A121C cannot be ordered by “polymerase ribozyme fitness (log ratio)” value: no more than -4.2 for the first, no more than -4.2 for the second.

A28C A41U G42A C57U G59A G88C C103U A106C G126A G133A U139G A142C and A28C A47C C132U cannot be ordered by “polymerase ribozyme fitness (log ratio)” value: no more than -4.2 for the first, no more than -4.2 for the second.

A28C A47C G62C C108G A122C and A28C A49U C51U C72U C75G C87G U90G U135A cannot be ordered by “polymerase ribozyme fitness (log ratio)” value: no more than -4.2 for the first, no more than -4.2 for the second.

A28C A49U U56A G65A G70C A91U G94C G117C U151A and A28C A52C C54G A91G C125U cannot be ordered by “polymerase ribozyme fitness (log ratio)” value: no more than -4.2 for the first, no more than -4.2 for the second.

A28C A52G C76G A91U U146G and A28C A52G C103G A115U U148C cannot be ordered by “polymerase ribozyme fitness (log ratio)” value: no more than -4.2 for the first, no more than -4.2 for the second.

A28C A52G U56A G62C C85U U148A and A28C A52U G86C cannot be ordered by “polymerase ribozyme fitness (log ratio)” value: no more than -4.2 for the first, no more than -4.2 for the second.

A28C A107G U144C U148C and A28C C32G C36U U145C cannot be ordered by “polymerase ribozyme fitness (log ratio)” value: no more than -4.2 for the first, no more than -4.2 for the second.

A28C C32G C63U and A28C C32G G48U C96G cannot be ordered by “polymerase ribozyme fitness (log ratio)” value: no more than -4.2 for the first, no more than -4.2 for the second.

A28C C35G C43U G59C A91G A121C C125A and A28C C36A U53G U56G C87U cannot be ordered by “polymerase ribozyme fitness (log ratio)” value: no more than -4.2 for the first, no more than -4.2 for the second.

A28C C36U U44C G59A U82C C85A A97U C108U C114U C131G U151C and A28C C38U G133U cannot be ordered by “polymerase ribozyme fitness (log ratio)” value: no more than -4.2 for the first, no more than -4.2 for the second.

A28C C51U C76U G140A and A28C C51U G58C A73G A97G A107U C118A U146C cannot be ordered by “polymerase ribozyme fitness (log ratio)” value: no more than -4.2 for the first, no more than -4.2 for the second.

A28C C54A C57U and A28C C54U C57U U90G C95G A120U U145A U148G cannot be ordered by “polymerase ribozyme fitness (log ratio)” value: no more than -4.2 for the first, no more than -4.2 for the second.

A28C C54U G58A G83A C87A and A28C C54U G74A cannot be ordered by “polymerase ribozyme fitness (log ratio)” value: no more than -4.2 for the first, no more than -4.2 for the second.

A28C C57A A66U G71A C87A U102G A138C and A28C C57G G84A C116A C118A G133U cannot be ordered by “polymerase ribozyme fitness (log ratio)” value: no more than -4.2 for the first, no more than -4.2 for the second.

A28C C57U C95A C99A C131U G136A and A28C C76G G86A A147U cannot be ordered by “polymerase ribozyme fitness (log ratio)” value: no more than -4.2 for the first, no more than -4.2 for the second.

A28C C76U A89G G92U C108G U134C G140A and A28C C79G G80C A107U cannot be ordered by “polymerase ribozyme fitness (log ratio)” value: no more than -4.2 for the first, no more than -4.2 for the second.

A28C C85G U111G U135C and A28C C87A cannot be ordered by “polymerase ribozyme fitness (log ratio)” value: no more than -4.2 for the first, no more than -4.2 for the second.

A28C C93A C149A and A28C C93G A110U A121U A142G cannot be ordered by “polymerase ribozyme fitness (log ratio)” value: no more than -4.2 for the first, no more than -4.2 for the second.

A28C C93U A98G A107C and A28C G42A C93U A107U U146G A147U cannot be ordered by “polymerase ribozyme fitness (log ratio)” value: no more than -4.2 for the first, no more than -4.2 for the second.
